# Test results: PubChem BioAssay AID463173 (ICCB-Longwood Screening Facility, Harvard Medical School, 2010)
# Out of some 52,000 compounds screened, about 1,700 (3.3%) were called active. No stated cut-off is given here; in the data, active means survival mostly below about 52% (no sharp cut-off); inactive means mostly above about 56%. The list shows a part of the results.
# Test system: Wild type
# Test: S. aureus survival, RN4220 and DeltatarO strains – OD600, teichoic acid synthesis inhibitors, primary screen (AID 463173)
# Conditions: S. aureus RN4220 wild type/DeltatarO growth, OD600, 18 h, active compounds read low, screened at 18.75 µg/mL (by protocol)
row,SMILES,survival
1,CC(C)=NNS(=O)(=O)c1ccc(N2CCCC2=O)cc1,inactive: 102%
2,COc1cc(CNC(=O)CSCc2nc3cccnc3n2C2CCCCC2)cc(OC)c1OC,inactive: 135%
3,COc1cccc(NC(=O)CN(C)S(=O)(=O)c2cccs2)c1,inactive: 89%
4,CCOc1cc(C#N)c(NC(=O)c2cccc(S(=O)(=O)N3CCOCC3)c2)cc1OCC,inactive: 131%
5,O=C(CCNS(=O)(=O)c1ccc2c(c1)CCCC(=O)N2)NCc1ccccc1Cl,inactive: 72%
6,CCC(=O)N1CCc2cc(CNC(=O)Nc3ccccc3Cl)ccc21,inactive: 68%
7,CC1CCN(C(=O)CSc2nc(-c3ccc(C(C)C)cc3)no2)CC1,inactive: 71%
8,CC(C(=O)NCc1ccccc1)N1Cc2ccccc2C1=O (stereo not drawn),inactive: 76%
9,CCC1CCCCN1CCCNC(=O)c1ccc2c(c1)N(Cc1ccccc1F)C(=O)c1ccccc1S2(=O)=O (stereo not drawn),inactive: 125%
10,CCCS(=O)(=O)N1CC(=O)N(c2ccccc2F)C(C)(C(=O)NC2CCCCCC2)C1 (stereo not drawn),inactive: 72%
11,Cc1ccc(C(=O)Nc2ccc3c(c2)N(C)C(=O)c2ccccc2S3)cc1,inactive: 99%
12,COc1ccc(CCNC(=O)c2cc(C)nc3c2c(C)nn3-c2ccccc2)cc1OC,inactive: 76%
13,CCc1ccc(NC(=O)c2cc(S(=O)(=O)N3CCCC3)ccc2F)cc1,inactive: 69%
14,CCCCc1nn2c(=O)cc(COC(=O)c3ccc(NC(=O)c4cccs4)cc3)nc2s1,inactive: 84%
15,Fc1ccc(Nc2nc3nonc3nc2Nc2cccc(C(F)(F)F)c2)cc1,active: -1%
16,CCN1CCSc2ccc(C(=O)NCc3cccc(F)c3)cc21,inactive: 87%
17,O=C(Cn1c(=O)n(-c2ccc(Cl)cc2)c(=O)c2c3c(sc21)CCC3)c1ccc(F)cc1,inactive: 74%
18,Cn1c(CNC(=O)CSc2n[nH]c(-c3ccccc3)n2)nc2ccccc21,inactive: 67%
19,CC(C)(C)C1CCc2c(sc(NC(=O)Cn3nnc(-c4cccc(C(F)(F)F)c4)n3)c2C#N)C1 (stereo not drawn),inactive: 96%
20,CCCCCOC(=O)CSc1nc2sc3c(c2c(=O)n1Cc1ccccc1)CC(C)(C)OC3,inactive: 62%

row,SMILES,survival
1,CC1(C)OC2C(CS(C)(=O)=O)OC(n3ncc(=O)[nH]c3=O)C2O1 (stereo not drawn),inactive: 110%
2,Cc1csc2nc(COc3ccc(NC(=O)COc4ccccc4F)cc3)cc(=O)n12,inactive: 86%
3,COc1ccccc1Cn1c(CNS(=O)(=O)c2ccc3c(c2)CCCC3)nc2cccnc21,inactive: 70%
4,COc1ccccc1OCCSc1ncnc2nc[nH]c12,inactive: 105%
5,COc1ccccc1N1CCN(C(=O)CSc2nc3ccccc3nc2Cc2ccc(F)cc2)CC1,inactive: 80%
6,O=C(CSc1nc(-c2ccccc2)[nH]c1-c1ccccc1)Nc1ccc2c(c1)OCO2,inactive: 100%
7,Cc1cccc(Nc2nc(-c3ccccc3)c3cc(C)ccc3n2)c1,active: 11%
8,Cc1nc2sccn2c(=O)c1S(=O)(=O)Nc1ccc(N2CCN(S(C)(=O)=O)CC2)cc1,inactive: 129%
9,CCC(=O)N1c2ccccc2CC1C(=O)NCCN1CCN(c2cccc(C)c2C)CC1 (stereo not drawn),inactive: 73%
10,O=C(Nc1ccc(N2CCCCC2)cc1)c1cccnc1,inactive: 107%
11,Cc1ccc(-c2nc3ccccc3o2)cc1NC(=O)c1cccc2c(Cl)cccc12,inactive: 62%
12,Cc1ccc(/C=[N+](\[O-])c2ccc(N(C)C)cc2)c2nsnc12,inactive: 89%
13,Cc1ccc(NC(=O)CSc2nnc3[nH]c(=O)cc(C)n23)cc1Cl,inactive: 84%
14,Cc1sc2c(c1C)c(=O)n(-c1ccccc1)c(=O)n2CC(=O)c1ccc(Cl)cc1,inactive: 88%
15,COc1cccc(CNC(=O)CCc2nnc3n(CC(C)C)c(=O)c4ccccc4n23)c1,inactive: 88%
16,CC(C)CC(=O)N1CC(=O)Nc2ccc(F)cc2C1c1ccccc1 (stereo not drawn),inactive: 135%
17,CCC(Sc1nc2c(sc3ccccc32)c(=O)n1CCCC(=O)NC1CCCC1)C(=O)Nc1cccc(OC)c1 (stereo not drawn),inactive: 141%
18,Cc1nc2cc(-c3ccc(Br)cc3)[nH]n2c(=O)c1Cl,inactive: 99%
19,CC(C)OCCCn1c(SCC(=O)Nc2ccc(F)cc2)nc2c(sc3ccccc32)c1=O,inactive: 120%
20,Cc1ccccc1NCc1cccn1-c1nnc(N2CCOCC2)s1,inactive: 121%

row,SMILES,survival
1,O=[N+]([O-])c1cc(-c2nc(-c3ccccc3)no2)ccc1N1CCCC1,inactive: 82%
2,O=C(Nc1ccc(F)cc1)C1CCN(c2nc3ccccc3n3cccc23)CC1,inactive: 86%
3,COc1ccc(NC(=O)c2cc3c(=O)n(C)c4ccccc4c3s2)cc1Cl,inactive: 73%
4,CCOC(=O)C1CCCN(C(=O)c2c(C)nn(-c3ccc(F)cc3)c2-n2cccc2)C1 (stereo not drawn),inactive: 132%
5,Cc1ccc(OCCSc2nc3ccc(NC(=O)c4ccc5c(c4)OCO5)cc3s2)cc1,inactive: 90%
6,CSc1ccc(CCNC(=O)CCn2c(=O)c3cccn3c3cccnc32)cc1,inactive: 88%
7,CCOc1ccc(-c2cc3c(=O)n(CC(=O)NCc4ccc(OC)cc4)ccn3n2)cc1,inactive: 72%
8,CCCc1ccc(OC(=O)CSc2nnc(-c3cccs3)o2)cc1,inactive: 85%
9,CCS(=O)(=O)N1CCc2cc(C(=O)Nc3cccc(C)c3C)ccc21,inactive: 86%
10,CC(=O)c1cccc(NCc2ccccc2-c2nnc(-c3ccccc3)o2)c1,inactive: 91%
11,Cc1cccc(NC(=O)CSc2nnc(N)s2)c1,inactive: 144%
12,CCOc1ccc(S(=O)(=O)N2CCC(N3CCN(Cc4ccc(F)cc4)C(=O)C3=O)CC2)cc1,inactive: 71%
13,O=C(NC1(C(F)(F)F)NC(=O)N(CCc2ccccc2)C1=O)c1ccccc1Cl (stereo not drawn),inactive: 73%
14,C/C(=N/O)c1[nH]c(C)c(/C(C)=N\O)c1C,inactive: 105%
15,C=CCNCc1cc2cc(OCC)ccc2[nH]c1=O,inactive: 104%
16,CCC(C)NS(=O)(=O)c1ccc(-n2cnnn2)cc1 (stereo not drawn),inactive: 100%
17,O=C(CCn1cccn1)NCc1ccc(Cl)cc1,inactive: 45%
18,CCOC(=O)C(CC)Sc1ncnc2sc3c(c12)CCCC3 (stereo not drawn),active: -3%
